5 molecules from US7981890B2, “Phthalazinone derivatives” (AstraZeneca AB, priority 2007, dated 2011) can be followed below.

pIC50: −log10 of the molar value.

The target of the test is Mammalian PARP, isolated from Hela cell nuclear extract (Homo sapiens, UniProt P09874). The test can be described thus: PARP inhibition assay (FlashPlate, 3H-NAD). It is filed as biochemical. As for the experimental part: In order to assess the inhibitory action of the compounds, the following assay was used to determine IC50 values.
UniProt P09874, sequence (P09874 whole entry): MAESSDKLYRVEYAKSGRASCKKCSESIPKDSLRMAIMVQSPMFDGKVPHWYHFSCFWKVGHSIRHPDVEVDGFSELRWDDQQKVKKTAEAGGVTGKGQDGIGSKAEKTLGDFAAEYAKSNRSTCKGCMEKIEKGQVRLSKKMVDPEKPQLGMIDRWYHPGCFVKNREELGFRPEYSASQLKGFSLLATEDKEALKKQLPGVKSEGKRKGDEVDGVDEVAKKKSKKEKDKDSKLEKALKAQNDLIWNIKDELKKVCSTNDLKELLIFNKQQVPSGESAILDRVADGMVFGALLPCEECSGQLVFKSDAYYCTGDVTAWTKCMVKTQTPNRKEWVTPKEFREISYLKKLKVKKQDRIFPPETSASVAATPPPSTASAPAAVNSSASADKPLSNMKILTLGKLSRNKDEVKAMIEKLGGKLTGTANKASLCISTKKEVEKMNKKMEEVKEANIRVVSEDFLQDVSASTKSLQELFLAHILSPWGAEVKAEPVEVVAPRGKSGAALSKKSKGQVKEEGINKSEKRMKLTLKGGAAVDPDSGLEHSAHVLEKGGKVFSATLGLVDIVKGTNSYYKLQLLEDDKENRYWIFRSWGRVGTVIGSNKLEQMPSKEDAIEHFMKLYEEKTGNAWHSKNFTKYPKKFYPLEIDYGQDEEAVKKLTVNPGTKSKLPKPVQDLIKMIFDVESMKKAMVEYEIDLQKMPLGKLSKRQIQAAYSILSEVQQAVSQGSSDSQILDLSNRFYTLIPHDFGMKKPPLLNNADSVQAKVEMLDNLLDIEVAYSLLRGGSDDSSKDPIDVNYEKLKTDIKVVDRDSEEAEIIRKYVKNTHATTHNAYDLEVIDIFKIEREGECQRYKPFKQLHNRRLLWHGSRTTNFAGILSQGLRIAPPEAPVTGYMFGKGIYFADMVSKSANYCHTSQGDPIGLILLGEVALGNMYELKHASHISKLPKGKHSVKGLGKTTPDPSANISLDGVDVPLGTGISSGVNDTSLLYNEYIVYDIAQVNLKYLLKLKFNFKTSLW
All compounds were diluted in DMSO and gave final assay concentrations of between 10 and 0.01 μM, with the DMSO being at a final concentration of 1% per well. The total assay volume per well was 4 μl.
After 10 minutes incubation at 30° C. the reactions were initiated by the addition of a 10 μl reaction mixture, containing NAD (5 μM), ^3H-NAD and 30mer double stranded DNA-oligos. Designated positive and negative reaction wells were done in combination with compound wells (unknowns) in order to calculate % enzyme activities. The plates were then shaken for 2 minutes and incubated at 30° C. for 45 minutes.
Following the incubation, the reactions were quenched by the addition of 50 μl 30% acetic acid to each well. The plates were then shaken for 1 hour at room temperature.
The plates were transferred to a TopCount NXT (TRADE MARK) (Packard, UK) for scintillation counting. Values recorded are counts per minute (cpm) following a 30 second counting of each well.
The % enzyme activity for each compound is then calculated using the following equation:
[formula] IC50 values (the concentration at which 50% of the enzyme activity is inhibited) were calculated, which are determined over a range of different concentrations, normally from 10 μM down to 0.001 μM. Such IC50 values are used as comparative values to identify increased compound potencies.
One may read the pIC50 as −log10 of the IC50, conventionally taken in molar units. On to `C[C@@H]1NC(=O)N(c2cc(Cc3n[nH]c(=O)c4c3CCCC4)ccc2F)C1=O` (single isomer, unassigned) [Compound 13a], for which the pIC50 is 8.52. As to `C[C@H]1NC(=O)N(c2cc(Cc3n[nH]c(=O)c4c3CCCC4)ccc2F)C1=O` (single isomer, unassigned) [Compound 13b], the pIC50 is 8.30. The same measure for `CC1NC(=O)N(c2cccc(Cc3n[nH]c(=O)c4c3CCCC4)c2)C1=O` (centres unmarked) [Compound 6, 5-Methyl-3-[3-(4-oxo-3,4,5,6,7,8-hexahydro-phthalazin-1-ylmethyl)-phenyl]-imidazolidine-2,4-dione]: 8.30. Take `CC1NC(=O)N(c2cc(Cc3n[nH]c(=O)c4c3CCCC4)ccc2F)C1=O` (centres unmarked) [Compound 13, 3-[2-Fluoro-5-(4-oxo-3,4,5,6,7,8-hexahydro-phthalazin-1-ylmethyl)-phenyl]-5-methylimidazolidine-2,4-dione]: the pIC50 is 8.40. With `CC1(C)NC(=O)N(c2cccc(Cc3n[nH]c(=O)c4c3CCCC4)c2)C1=O` [Compound 15, 5,5-dimethyl-3-[3-[(4-oxo-5,6,7,8-tetrahydro-3H-phthalazin-1-yl)methyl]phenyl]imidazolidine-2,4-dione], the pIC50 was 7.55.
